The target in the assay is T1, 人CD47 (on CHO-HuCD47 cells and on Raji cells) (human).
T1 construct: whole, on cells; also called 人源CD47; CHO-HuCD47细胞
Kind of assay: competition flow cytometry on Raji cells; competitor SIRPα-Ig-Biotin, APC-streptavidin.

B1: 信号调节蛋白α片段-抗FcRn单链抗体融合蛋白(SIRPα-F8) (other)
chain: [left out - about 120 residues]KPSKLGGGGSGGGGSGGGGSQAVLTQPPSASGTPGQRVTIS[left out - about 80 residues]LFGGGTKLTVLGSRGGGGSGGGGSGGGGSLEMAQVQLVQSGAEVKKPGASVKVSCKTSGYTFTGYYIHWVRQAPGQGLEWMGHISPHSGGTDYAQKFQGRVTMTRDTSISTAYMELSRLRSDDTAVYYCARGVYGMDRWGQGTLVTVSSTSGQAGQHHHHHHGLNDIFEAQKIEWHE
notes: Expressed in HEK293-6E cells
On to B1, for which the binding result is “binds”.

Source of the values: patent CN111484558A (UNIV SHANGHAI JIAOTONG, dated 2020).
